± gives the standard deviation of the averaged measurements. This is one part of the list.
What was measured:
[1] = test system: murine small intestinal organoids (ENR+CD Paneth differentiation); test: cellular ATP (CellTiter-Glo 3D) relative to plate median (log10 fold change); higher = more viable cells; conditions: 6 d
[2] = test system: murine small intestinal organoids (ENR+CD Paneth differentiation); test: carbachol-stimulated secreted lysozyme activity relative to plate median (log10 fold change); higher = more Paneth cell lysozyme secretion; conditions: 6 d, carbachol 10 µM
[3] = test system: murine small intestinal organoids (ENR+CD Paneth differentiation); test: basal (non-stimulated) secreted lysozyme activity relative to plate median (log10 fold change); higher = more Paneth cell lysozyme secretion; conditions: 6 d
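Wherever basal (non-stimulated) secreted lysozyme activity relative to plate median is given: ISC-enriched organoid precursors grown as 2.5D pseudo-monolayer on Matrigel, compound given on day 0 and day 3, plate values LOESS-normalized before median fold change, three murine donors.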
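Wherever cellular ATP (CellTiter-Glo 3D) relative to plate median is given: 2.5D pseudo-monolayer culture of ISC-enriched organoids partly embedded atop Matrigel, compound added on day 0 and again on day 3, per-plate LOESS correction before median fold change.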

Compound | cellular ATP (log10) ([1]; 0.08 µM) | cellular ATP (log10) ([1]; 0.4 µM) | cellular ATP (log10) ([1]; 2 µM) | cellular ATP (log10) ([1]; 10 µM) | carbachol-stimulated secreted lysozyme activity (log10) ([2]; 0.08 µM) | carbachol-stimulated secreted lysozyme activity (log10) ([2]; 0.4 µM) | carbachol-stimulated secreted lysozyme activity (log10) ([2]; 2 µM) | carbachol-stimulated secreted lysozyme activity (log10) ([2]; 10 µM) | basal (log10) ([3]; 0.08 µM) | basal (log10) ([3]; 0.4 µM) | basal (log10) ([3]; 2 µM) | basal (log10) ([3]; 10 µM)
COc1cc(F)c(C(C)C)cc1-c1ccc(C(F)(F)F)cc1CN1C(=O)O[C@H](c2cc(C(F)(F)F)cc(C(F)(F)F)c2)[C@@H]1C [Anacetrapib (MK-0859)] | -0.0897 ± 0.087 | 0.0353 ± 0.06 | -0.094 ± 0.083 | 0.0313 ± 0.14 | 0.0291 ± 0.17 | -0.0189 ± 0.087 | -0.0127 ± 0.048 | -0.0488 ± 0.041 | 0.0129 ± 0.057 | 0.00683 ± 0.056 | -0.0148 ± 0.031 | -0.0361 ± 0.054
COC1CCN(C(=O)c2cc(Cc3n[nH]c(=O)c4ccccc34)ccc2F)CC1 | 0.0728 ± 0.15 | -0.0398 ± 0.38 | -0.232 ± 0.15 | -0.336 ± 0.12 | 0.115 ± 0.19 | -0.0446 ± 0.27 | -0.129 ± 0.14 | -0.254 ± 0.21 | 0.0384 ± 0.11 | -0.0375 ± 0.1 | -0.0736 ± 0.078 | -0.172 ± 0.084
CCCCNc1ncc(-c2ccc(CN3CCOCC3)cn2)c(NC2CCC(O)CC2)n1 (stereo unspecified) | 0.257 ± 0.077 | 0.145 ± 0.2 | 0.109 ± 0.094 | -0.0848 ± 0.26 | 0.0959 ± 0.28 | 0.198 ± 0.17 | 0.056 ± 0.026 | -0.165 ± 0.3 | 0.0467 ± 0.14 | 0.0902 ± 0.13 | 0.0415 ± 0.015 | -0.0579 ± 0.26
Cc1nnc(C(C)C)n1C1C[C@H]2CC[C@@H](C1)N2CC[C@H](NC(=O)C1CCC(F)(F)CC1)c1ccccc1 (stereo in doubt) [Maraviroc] | -0.0841 ± 0.086 | 0.0789 ± 0.26 | -0.0092 ± 0.12 | 0.139 ± 0.35 | 0.102 ± 0.14 | 0.27 ± 0.17 | 0.0294 ± 0.15 | 0.0936 ± 0.15 | 0.0472 ± 0.11 | 0.0411 ± 0.048 | 0.0309 ± 0.079 | 0.0872 ± 0.1
COc1cc2c(cc1Cc1cccc(Cl)c1F)c(=O)c(C(=O)O)cn2[C@H](CO)C(C)C [Elvitegravir (GS-9137, JTK-303)] | -0.000622 ± 0.45 | -0.0396 ± 0.34 | -0.344 ± 0.049 | -0.737 ± 0.68 | -0.0681 ± 0.047 | 0.106 ± 0.46 | -0.16 ± 0.056 | -0.249 ± 0.0084 | -0.0473 ± 0.092 | -0.0687 ± 0.071 | -0.0943 ± 0.074 | -0.0898 ± 0.11
N#CSc1cc(SC#N)c(N)nc1N | 0.0984 ± 0.025 | -0.143 ± 0.55 | -0.136 ± 0.54 | -0.591 ± 0.095 | 0.0612 ± 0.21 | -0.0876 ± 0.029 | -0.0733 ± 0.14 | -0.205 ± 0.089 | 0.0156 ± 0.095 | -0.0076 ± 0.2 | -0.0385 ± 0.16 | -0.254 ± 0.054
CC1(C)CCC(c2ccc(Cl)cc2)=C(CN2CCN(c3ccc(C(=O)NS(=O)(=O)c4ccc(N[C@H](CCN5CCOCC5)CSc5ccccc5)c(S(=O)(=O)C(F)(F)F)c4)cc3)CC2)C1 [ABT-263 (Navitoclax)] | -0.212 ± 0.3 | -0.264 ± 0.17 | -0.368 ± 0.27 | -0.962 ± 0.11 | -0.0755 ± 0.16 | -0.000608 ± 0.07 | -0.213 ± 0.15 | -0.458 ± 0.19 | 0.012 ± 0.13 | 0.00709 ± 0.05 | -0.143 ± 0.082 | -0.259 ± 0.095
CC1C(=O)OC2C(O)C34C5CC(C(C)(C)C)C36C(OC(=O)C6O)OC4(C(=O)O5)C12O (stereo unspecified) [Ginkgolide B] | -0.0762 ± 0.21 | 0.0339 ± 0.14 | -0.154 ± 0.46 | 0.177 ± 0.27 | -0.0602 ± 0.053 | 0.0305 ± 0.0022 | 0.0013 ± 0.082 | -0.0745 ± 0.081 | 0.0406 ± 0.12 | 0.109 ± 0.16 | 0.0606 ± 0.024 | -0.0374 ± 0.08
CC(C)C[C@H](NC(=O)[C@H]1O[C@@H]1C(=O)O)C(=O)NCCCCN=C(N)N | 0.355 ± 0.26 | 0.0454 ± 0.073 | 0.171 ± 0.29 | 0.225 ± 0.41 | 0.128 ± 0.034 | 0.0735 ± 0.13 | 0.00204 ± 0.0023 | 0.0853 ± 0.093 | 0.15 ± 0.047 | 0.015 ± 0.07 | 0.0224 ± 0.12 | 0.0374 ± 0.045
COc1cc(OC2CCN(C)CC2)ccc1Nc1ncc2c(n1)n(C1CCCC1)c(=O)n2C | -0.13 ± 0.28 | -0.262 ± 0.37 | -0.369 ± 0.33 | -1.17 ± 0.44 | 0.00858 ± 0.093 | -0.0215 ± 0.067 | -0.0756 ± 0.14 | -0.494 ± 0.039 | 0.0734 ± 0.0027 | -0.0376 ± 0.055 | -0.079 ± 0.084 | -0.281 ± 0.081
O=C1CC(=O)c2c(Cl)c(Cl)c(Cl)c(Cl)c21 | 0.0021 ± 0.14 | 0.0222 ± 0.051 | -0.095 ± 0.15 | -0.139 ± 0.27 | -0.00177 ± 0.11 | 0.0144 ± 0.11 | -0.0978 ± 0.087 | -0.1 ± 0.064 | 0.0279 ± 0.058 | -0.0131 ± 0.047 | -0.0745 ± 0.0071 | -0.0151 ± 0.11
CCN(CC)CC(=O)Nc1c(C)cccc1C [Lidocaine] | -0.0787 ± 0.16 | -0.153 ± 0.25 | 0.034 ± 0.1 | -0.256 ± 0.089 | 0.0221 ± 0.015 | 0.0155 ± 0.0072 | -0.0551 ± 0.046 | -0.0239 ± 0.011 | 0.106 ± 0.055 | 0.0165 ± 0.064 | 0.000882 ± 0.043 | 0.0191 ± 0.034
Cn1cnc2c(F)c(Nc3ccc(Br)cc3Cl)c(C(=O)NOCCO)cc21 [Selumetinib (AZD6244)] | -0.544 ± 0.88 | -0.0758 ± 0.23 | -0.323 ± 0.22 | -0.39 ± 0.28 | -0.0816 ± 0.27 | 0.0268 ± 0.04 | -0.00753 ± 0.32 | -0.181 ± 0.15 | -0.047 ± 0.13 | 0.000287 ± 0.063 | -0.0541 ± 0.086 | -0.133 ± 0.038
Cc1cc2c(cc1CC(=O)c1sccc1S(=O)(=O)Nc1onc(C)c1Cl)OCO2 [Sitaxentan sodium] | 0.112 ± 0.076 | -0.129 ± 0.45 | -0.05 ± 0.3 | -0.103 ± 0.27 | -0.0262 ± 0.09 | 0.0701 ± 0.043 | 0.11 ± 0.057 | 0.0501 ± 0.048 | -0.0103 ± 0.045 | -0.0256 ± 0.058 | 0.258 ± 0.31 | 0.0143 ± 0.086
S=C=Nc1cccc(NC(=S)NCCCCNC(=S)Nc2cccc(N=C=S)c2)c1 | -0.142 ± 0.18 | 0.061 ± 0.33 | -0.159 ± 0.2 | -0.228 ± 0.26 | 0.0431 ± 0.038 | 0.0189 ± 0.053 | 0.00683 ± 0.073 | 0.0702 ± 0.12 | 0.116 ± 0.077 | 0.0357 ± 0.062 | 0.031 ± 0.094 | 0.0317 ± 0.099
O=S(=O)(NCCNCC=Cc1ccc(Br)cc1)c1cccc2cnccc12 | 0.35 ± 0.17 | 0.398 ± 0.26 | 0.421 ± 0.34 | 0.385 ± 0.14 | 0.0418 ± 0.085 | 0.158 ± 0.18 | 0.0652 ± 0.26 | -0.0576 ± 0.33 | 0.14 ± 0.083 | 0.0798 ± 0.016 | 0.0858 ± 0.11 | 0.132 ± 0.27
CC(C)c1c(C(=O)Nc2ccccc2)c(-c2ccccc2)c(-c2ccc(F)cc2)n1CC[C@@H](O)C[C@@H](O)CC(=O)O [Atorvastatin Calcium] | -0.129 ± 0.17 | -0.348 ± 0.16 | -1.08 ± 0.53 | -1.58 ± 0.47 | 0.0404 ± 0.013 | -0.0424 ± 0.08 | -0.431 ± 0.035 | -0.388 ± 0.017 | -0.00885 ± 0.064 | 0.00713 ± 0.14 | -0.247 ± 0.12 | -0.235 ± 0.12
COc1cc(N2CCC(N(C)C)CC2)ccc1Nc1ncc(Cl)c(Nc2ccccc2P(C)(C)=O)n1 | -0.0545 ± 0.28 | 0.0607 ± 0.27 | -0.558 ± 0.43 | -1.68 ± 0.43 | 0.17 ± 0.067 | -0.0552 ± 0.12 | -0.336 ± 0.17 | -0.467 ± 0.082 | -0.0133 ± 0.028 | -0.0621 ± 0.048 | -0.196 ± 0.12 | -0.272 ± 0.19
